To fix the notation:
B1: TPR 5TU (parent)
chain: GGAUCUUCUCGAUCUAACAAAAAAGACAAAUCUGCCACAAAGCUUGAGAGCAUCUUCGGAUGCAGAGGCGGCAGCCUUCGGUGGCGCGAUAGCGCCAACGUUCUCAACUAUGACACGCAAAACGCGUGCUCCGUUGAAUGGAGUUUAUCAUG

This sample is rich in variants without activity.

We go through 83 variants from the RNAGym collection of RNA variant scans (doi:10.1073/pnas.2313332121).

In the series the parent is B1. Kind of series: polymerase ribozyme fitness, log enrichment relative to wild type (log ratio); higher = more active; in vitro selection for triplet polymerase activity. The method in brief:
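In triplicate, a single round of in vitro selection was run on each mutant library, PCR-built and transcribed, covering one subunit of a heterodimeric triplet polymerase ribozyme. Frozen incubation at −7 °C followed annealing with a biotinylated primer, partner subunit and triplets, and extended constructs were then gel-excised, streptavidin-captured and taken through RT-PCR. Fitness is the logarithm of genotype enrichment over wild-type enrichment, from inverse-variance-weighted replicate averages of Illumina-sequenced inputs and outputs. […] only genotypes with ≥10 input reads and ≥1 read per output were kept.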
Consider A19G C54G U56A G94A C105G A113C, for which the “polymerase ribozyme fitness (log ratio)” value was not above -4.2.
To A19G G50C C75G C85G C103A U135C belongs not above -4.2.
In the case of A19U A26U C32A U55A, the “polymerase ribozyme fitness (log ratio)” value was not above -4.2.
Regarding A19U C54U U134C A150C, the “polymerase ribozyme fitness (log ratio)” value is -2.5.
To A19G A52U A110U U146G belongs not above -4.2; to A19G C85U C93G, not above -4.2; to A19U A23C A91U, not above -4.2.
As for A19G U55A C57U G80U C99U C103G U134C, the figure is not above -4.2; as for A19U C43U U44A G88U A89G C96G G126A, not above -4.2; as for A19U A52G U53G U56A G58C G71U G80A A91C U127C U148C, not above -4.2.
A19G A49C: the “polymerase ribozyme fitness (log ratio)” value is not above -4.2.
As for A19U A24U G46U A49C U82G C99A, the “polymerase ribozyme fitness (log ratio)” value was not above -4.2.
For the variant A19U A24G A37C G74U C87G C95A G136U G140A G143U, the “polymerase ribozyme fitness (log ratio)” value is not above -4.2.
To A19G U78G C87G A98U U101G G126A belongs not above -4.2; to A19G G42U A47G G81C G94A U144C, not above -4.2.
To A19U A60U C93U C114U belongs -4.17; to A19G U31G U44A G80A C123G G141C, not above -4.2; to A19G U55A C87A A106G G124C G136C C149A A150C, not above -4.2.
With A19U C38U C75U G83C G84U A91C U144C, the “polymerase ribozyme fitness (log ratio)” value is not above -4.2.
As for A19G G50U U55A C96U U145G, the figure is -2.18.
To A19G C123G belongs -1.22; to A19G A49C U61A C93U C95U C103U G140A, not above -4.2; to A19U A20C C93U G117U G126A, not above -4.2.
As for A19U A20U G50C C54U U55G C76A C85A C103U U144A, the figure is not above -4.2; as for A19G C32A A47C G59C C85U A106C G143C, not above -4.2; as for A19G G25A G50C G62U G92A A113U C118U A120C A150C, not above -4.2.
With A19G G34A G50A U56A C69A C95A, the “polymerase ribozyme fitness (log ratio)” value was not above -4.2.
To A19U A37C U45A A66C G86A A147C U151G belongs not above -4.2.
As to A19U A40C A52U U55A C75A G141U U146A, the “polymerase ribozyme fitness (log ratio)” value was not above -4.2.
As for A19U A66U C85U A106G C116G U144A, the figure is not above -4.2; as for A19U C36U G86C C93U G100A G126C, not above -4.2; as for A19U A22C A40C C43G A66C C95A G141U G152A, -3.6.
With A19G G84U, the “polymerase ribozyme fitness (log ratio)” value is -2.39.
To A19G C32G G46A U61A G81A G86C C87A G88U G117U U151A belongs not above -4.2; to A19U C51G G59C C75G G88A A91U C96U G141C, not above -4.2; to A19U C32U U61A G70A C76A A89U C96G G140A U148G, not above -4.2.
To A19G U44A U53G A60U C87U A98U A121G belongs not above -4.2.
Turning to A19U C54G C79A U82C G84A A89C G92C U144C, the “polymerase ribozyme fitness (log ratio)” value was not above -4.2.
As for A19G U56A G71C U78G U102G C132G A137G C149U, the figure is not above -4.2.
On to A19G C38U A52G C75U G83U C85U G94A C103G, for which the “polymerase ribozyme fitness (log ratio)” value was not above -4.2.
As for A19U A22C U55G A64C A73G A91C U144A, the figure is not above -4.2.
To A19U A52C belongs -1.34.
To A19U C32A A60G C103A C105G A142G belongs not above -4.2; to A19U A28C, not above -4.2; to A19U C63U C96U C105G C116A, -2.98.
As for A19U C51A G86U C95U G141C, the “polymerase ribozyme fitness (log ratio)” value is not above -4.2.
Consider A19G U45A A66U G70A A91U A121C, for which the “polymerase ribozyme fitness (log ratio)” value was not above -4.2.
To A19G G42A G58A A60U U61A A97G C125A belongs not above -4.2; to A19G U44G G48C C76A C85G U102G C131G A142U, not above -4.2; to A19U A29C U44A C72A A97U G126A A150G, not above -4.2.
Take A19U C36U A66U G71A C85G A147U: the “polymerase ribozyme fitness (log ratio)” value is not above -4.2.
As for A19G C57U C69G C75A C125A, the figure is not above -4.2.
In the case of A19G G25A A28C G65C C95U C96U U146C U151A, the “polymerase ribozyme fitness (log ratio)” value was not above -4.2.
To A19U C54U G68A G84C C85G G124A belongs not above -4.2; to A19U A21U A52U G65C C75A C95U A115G, not above -4.2; to A19U C35G C43A U56A G58U C85U A113G A122C U151A, not above -4.2.
As to A19U C76G C96U, the “polymerase ribozyme fitness (log ratio)” value is not above -4.2.
To A19G U53A U61G C69G C93A C125G belongs not above -4.2; to A19G C95U A98G U109C G136U U151C, not above -4.2; to A19U C32G C96G A122C G126C G143U, not above -4.2.
To A19G G46C A64C C85G G100U A137U belongs not above -4.2.
As for A19G U82G G124A G140C, the figure is -3.62; as for A19G U45A C69U U77A G141C, not above -4.2; as for A19G C85U, -1.3.
A19U A37C U135G: the “polymerase ribozyme fitness (log ratio)” value is -3.82.
For the variant A19U A29U A60C G65A C69A C96U A110C, the “polymerase ribozyme fitness (log ratio)” value is not above -4.2.
To A19G G42A A66C C85U A106U U148A belongs not above -4.2; to A19U C54G A60C G65C C85A A98G G133U, not above -4.2; to A19G U56A G86A G141U, -1.64.
To A19G U45C C87A A98G belongs not above -4.2; to A19U C43U G50C G74A A91U U134C G140C, not above -4.2.
Regarding A19U A23G G42C G86A A106U, the “polymerase ribozyme fitness (log ratio)” value was not above -4.2.
A19G G83C C87U U101G: the “polymerase ribozyme fitness (log ratio)” value is not above -4.2.
As for A19G G58A A66C C93U C105G, the figure is not above -4.2; as for A19U A23C C27G A52G C54G G94A, not above -4.2; as for A19U A26G U44G C54G C95A, not above -4.2.
As for A19G G86A, the figure is -1.36; as for A19G G50A C69U G84U A98U A122G, not above -4.2.
To A19U C95U belongs -0.543; to A19U A106G G143C, -2.4; to A19G G68U C79G G84A G86A U135C G140U, not above -4.2.
Turning to A19U A73U, the “polymerase ribozyme fitness (log ratio)” value was -0.608.
As for A19U A23U A39U G59C A60U G86U U109G, the figure is not above -4.2.
